{"source": "the antibiotic and cytotoxicity screens of Wong et al. (2023)", "note": "The list shows a part of the results."}
{"system": "HepG2", "experiment": "cytotoxicity call (relative viability < 0.9)", "conditions": "10 µM"}
{"molecule": "COc1ccc(NC(=O)N(C)C[C@@H]2Oc3ccc(NC(=O)C4CC4)cc3C(=O)N([C@H](C)CO)C[C@@H]2C)cc1", "cytotoxicity call": "inactive"}
{"molecule": "O=C1O[C@H](c2ccccc2)[C@H](c2ccccc2)N2[C@H]1[C@@H](C(=O)N1CCN(c3ncccn3)CC1)[C@]1(C(=O)Nc3ccc(C#CC4=CCCCC4)cc31)[C@H]2c1ccc(O)cc1", "cytotoxicity call": "inactive"}
{"molecule": "CNC(=O)c1cc(S(=O)(=O)N(C)C[C@@H]2Oc3ccc(NC(=O)Nc4ccc(F)cc4)cc3CC(=O)N([C@@H](C)CO)C[C@@H]2C)cs1", "cytotoxicity call": "inactive"}
{"molecule": "O=C(C[C@@H]1CC[C@@H]2[C@H](COC[C@H](O)CN2C(=O)c2cnccn2)O1)NCc1ccc(Oc2ccccc2)cc1", "cytotoxicity call": "inactive"}
{"molecule": "COc1ccc(NC(=O)N(C)C[C@H]2OCCCC[C@H](C)Oc3ccc(NC(=O)Nc4cccc5ccccc45)cc3C(=O)N([C@H](C)CO)C[C@H]2C)cc1", "cytotoxicity call": "inactive"}
{"molecule": "C[C@H]1CN([C@@H](C)CO)S(=O)(=O)c2ccc(-c3cccnc3)cc2O[C@H]1CN(C)C(=O)NC1CCCC1", "cytotoxicity call": "inactive"}
{"molecule": "CC(C)NC(=O)N(C)C[C@H]1Oc2ccc(NC(=O)NC3CCCCC3)cc2C(=O)N([C@H](C)CO)C[C@@H]1C", "cytotoxicity call": "inactive"}
{"molecule": "COc1ccc(S(=O)(=O)N(C)C[C@H]2Oc3c(NC(=O)c4ccncc4)cccc3C(=O)N([C@H](C)CO)C[C@H]2C)cc1", "cytotoxicity call": "inactive"}
{"molecule": "CC(C)CC#Cc1ccc2c(c1)O[C@@H](CN(C)S(=O)(=O)c1cccc(F)c1)[C@H](C)CN([C@H](C)CO)S2(=O)=O", "cytotoxicity call": "inactive"}
{"molecule": "C[C@H](CO)N1C[C@H](C)[C@H](CN(C)Cc2ccc(-c3ccccc3)cc2)Oc2ccc(NC(=O)Nc3ccc(C(F)(F)F)cc3)cc2CC1=O", "cytotoxicity call": "active"}
{"molecule": "CNC(=O)c1ccc(Nc2ncc(C(F)(F)F)c(NCc3nccnc3N(C)S(C)(=O)=O)n2)cc1", "cytotoxicity call": "active"}
{"molecule": "C=CCOC(=O)[C@H]1[C@@H]2C(=O)O[C@@H](c3ccccc3)[C@@H](c3ccccc3)N2[C@@H](c2ccc(OCCOC(=O)[C@H]3C[C@H]4C(=O)N5CCC[C@H]5C(=O)N4[C@H]3c3cccc(OCCO)c3)cc2)[C@]12C(=O)Nc1ccccc12", "cytotoxicity call": "inactive"}
{"molecule": "Cc1noc(C)c1NC(=O)Nc1cccc2c1O[C@H](CN(C)Cc1ccc(C(=O)Nc3ccccc3N)cc1)[C@@H](C)CN([C@@H](C)CO)C2=O", "cytotoxicity call": "inactive"}
{"molecule": "N[C@H]1CC[C@H](CCn2cc(C3CC3)nn2)O[C@@H]1CO", "cytotoxicity call": "inactive"}
{"molecule": "C[C@H]1CN([C@@H](C)CO)C(=O)Cc2cc(NC(=O)Cn3cnnn3)ccc2O[C@H]1CN(C)CC1CCCCC1", "cytotoxicity call": "inactive"}
{"molecule": "COc1ccc(NC(=O)Nc2ccc3c(c2)CC(=O)N([C@@H](C)CO)C[C@@H](C)[C@@H](CN(C)C(=O)Nc2cccc4ccccc24)O3)cc1", "cytotoxicity call": "inactive"}
{"molecule": "C[C@H]1CN([C@@H](C)CO)C(=O)c2cc(C#Cc3ccccc3F)cnc2O[C@H]1CN(C)C(=O)c1ccc2c(c1)OCO2", "cytotoxicity call": "inactive"}
{"molecule": "N[C@@H](Cc1ccc(Cl)cc1)C(=O)O", "cytotoxicity call": "inactive"}
{"molecule": "O=C(C[C@H]1CC[C@H]2[C@@H](COC[C@@H](O)CN2Cc2ccccc2F)O1)N[C@H]1CCN(Cc2ccccc2)C1", "cytotoxicity call": "inactive"}
{"molecule": "CN(C)CCCCNC(=O)[C@H]1C[C@H]2C(=O)NCC(=O)N2[C@H]1c1cccc(OCCO)c1", "cytotoxicity call": "inactive"}
{"molecule": "COc1ccc2c3c([nH]c2c1)[C@H](CO)N(C[C@]13CCN(CC1)C(=O)c1cnccn1)C(=O)c1cnccn1", "cytotoxicity call": "inactive"}
{"molecule": "COc1ccc(S(=O)(=O)N(C)C[C@H]2Oc3ccc(NC(=O)Nc4c(C)noc4C)cc3C(=O)N([C@@H](C)CO)C[C@@H]2C)cc1", "cytotoxicity call": "inactive"}
{"molecule": "COc1ccc(OCCC(=O)NN)cc1", "cytotoxicity call": "inactive"}
{"molecule": "Cc1ccc(S(=O)(=O)N[C@H]2C=C[C@@H](CC(=O)NCCN3CCCCC3)O[C@H]2CO)cc1", "cytotoxicity call": "inactive"}
{"molecule": "COCC(=O)Nc1ccc2c(c1)OC[C@@H](C)N(C(=O)Cc1cccnc1)C[C@H](C)[C@@H](OC)CN(C)C2=O", "cytotoxicity call": "inactive"}
{"molecule": "C[C@@H]1CCCCO[C@H](CN(C)CC2CC2)[C@H](C)CN([C@@H](C)CO)C(=O)c2cc(NC(=O)NC3CCCCC3)ccc2O1", "cytotoxicity call": "inactive"}
{"molecule": "C[C@@H]1CN([C@H](C)CO)C(=O)c2cc(/C=C/c3ccccc3)cnc2O[C@H]1CN(C)S(=O)(=O)c1cn(C)cn1", "cytotoxicity call": "inactive"}
{"molecule": "COCCNC(=O)C[C@@H]1CC[C@@H]2[C@H](COC[C@@H](O)CN2C(=O)Nc2ccc3c(c2)OCO3)O1", "cytotoxicity call": "inactive"}
{"molecule": "Cc1ccc(S[C@]2(C(=O)NCC(F)(F)F)CC(=O)N(C3Cc4ccccc4C3)[C@@H]2c2ccc(CO)cc2I)cc1", "cytotoxicity call": "inactive"}
